Measured values: PubChem BioAssay AID504332 (National Center for Advancing Translational Sciences (NCATS), 2011)
Among all 350,000 compounds or so, about 31,000 (8.9%) were called active. Inconclusive results, whose numbers are uncertain, are shown with a selection of clear calls. Calls follow the shape of the dose curve; as a rule, active = well fitted inhibition curve with a large enough effect; inconclusive = small, poorly fitted or top-dose-only effect; inactive = no such curve, though single readings can be large or run the other way. Potencies beside an inconclusive call are fits to weak or partial responses and may not hold up.

molecular target: Histone-lysine N-methyltransferase EHMT2 (Homo sapiens) (UniProt Q96KQ7); test: qHTS Assay for Inhibitors of Histone Lysine Methyltransferase G9a; settings: G9a H3K9 monomethylation, AlphaScreen, 2 h; activity, negative = inhibition: at 59 µM (top of the series) unless noted; also: nearly all actives have a fitted effect of over 75% in size
In short: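 Quantitative HTS format: methyltransferase activity on a biotin-tagged H3K9 peptide is measured by AlphaScreen, using a rabbit anti-monomethyl-H3K9 antibody with streptavidin donor and anti-IgG acceptor beads. Final levels are 20 nM enzyme, 500 nM peptide, 20 uM SAM; 2 h RT.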
% is scaled to controls: 0 for no effect and ±100 for the full control effect; potency is read from the fitted curve at half-maximal effect; tags tell the direction and shape of the fitted curve.

UniProt Q96KQ7, sequence (Q96KQ7 whole entry, looked up): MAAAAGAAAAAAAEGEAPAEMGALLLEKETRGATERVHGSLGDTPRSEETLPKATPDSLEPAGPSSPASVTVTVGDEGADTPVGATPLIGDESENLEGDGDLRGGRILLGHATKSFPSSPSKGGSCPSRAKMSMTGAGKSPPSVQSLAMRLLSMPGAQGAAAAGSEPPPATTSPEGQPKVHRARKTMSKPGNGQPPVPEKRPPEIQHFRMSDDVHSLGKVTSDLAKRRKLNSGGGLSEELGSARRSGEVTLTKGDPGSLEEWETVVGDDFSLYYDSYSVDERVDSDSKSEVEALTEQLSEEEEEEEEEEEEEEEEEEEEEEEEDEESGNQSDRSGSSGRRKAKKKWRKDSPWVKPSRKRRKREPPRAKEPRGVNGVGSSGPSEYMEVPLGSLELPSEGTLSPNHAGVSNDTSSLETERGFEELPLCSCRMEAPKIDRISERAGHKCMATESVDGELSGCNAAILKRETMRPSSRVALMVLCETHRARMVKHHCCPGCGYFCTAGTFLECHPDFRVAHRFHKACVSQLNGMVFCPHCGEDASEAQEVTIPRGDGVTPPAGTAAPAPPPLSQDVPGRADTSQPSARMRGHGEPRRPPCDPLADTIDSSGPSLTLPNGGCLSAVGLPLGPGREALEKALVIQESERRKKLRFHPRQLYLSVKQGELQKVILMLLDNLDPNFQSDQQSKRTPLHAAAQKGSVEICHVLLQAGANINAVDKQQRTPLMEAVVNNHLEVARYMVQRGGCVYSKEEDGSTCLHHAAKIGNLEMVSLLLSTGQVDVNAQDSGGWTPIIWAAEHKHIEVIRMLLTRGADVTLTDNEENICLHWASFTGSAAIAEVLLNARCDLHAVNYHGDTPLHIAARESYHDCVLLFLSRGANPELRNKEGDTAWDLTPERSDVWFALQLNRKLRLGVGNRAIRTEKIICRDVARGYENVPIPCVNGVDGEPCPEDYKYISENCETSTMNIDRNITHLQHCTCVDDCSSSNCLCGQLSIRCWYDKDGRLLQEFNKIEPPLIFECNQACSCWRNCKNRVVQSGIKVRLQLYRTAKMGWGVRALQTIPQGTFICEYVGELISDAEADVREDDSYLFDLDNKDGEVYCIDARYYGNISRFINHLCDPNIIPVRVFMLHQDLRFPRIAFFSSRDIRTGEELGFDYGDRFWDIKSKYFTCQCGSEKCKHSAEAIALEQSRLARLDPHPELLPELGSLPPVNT

| SMILES | Potency | activity, negative = inhibition |
| --- | --- | --- |
| Cc1nc(SCC(=O)NC2CCS(=O)(=O)C2)c(C#N)c(C)c1C (stereo not drawn) | inconclusive: 28.2 µM [inhibitor, partial curve, poor fit] |  |
| Cc1cccc(-n2c3nc(=O)n(C)c(=O)c-3cc3c(Cl)cccc32)c1C | inconclusive: 25.1 µM [inhibitor, partial curve, poor fit] |  |
| CCNC(=O)CN(c1ccc(F)cc1)S(=O)(=O)c1ccc2c(c1)OCCO2 |  | inactive: 3.29% [at 102 µM] |
| CCCNC(=O)OC[C@H]1O[C@H](CCO/N=C/[C@@H](OC)[C@H](C)/C=C/CC(=O)OC)C=C[C@@H]1Oc1ccc(OC)cc1 | inconclusive: 79.4 µM [inhibitor, single point] |  |
| Cc1ccc(NC(=O)COC(=O)CCc2nc3ccccc3c(=O)[nH]2)cc1Cl | active: 35.5 µM |  |
| Cc1cc(C(=O)OCC(=O)c2c(N)n(C)c(=O)n(C)c2=O)c(C)o1 | inconclusive: 0.891 µM [inhibitor, full curve, poor fit] |  |
| CC(C)CN(C(=O)CSc1nnc(-c2cccs2)n1N)c1c(N)n(Cc2ccccc2)c(=O)[nH]c1=O | active: 50.1 µM |  |
| CCn1cc(C(=O)OC)c(=O)c2cc(S(=O)(=O)N(C)C3CCCCC3)ccc21 | inconclusive: 56.2 µM [inhibitor, partial curve, poor fit] |  |
| CC(=O)Nc1ccc(NC(=O)c2cc(C3CC3)nc3c2cnn3C(C)C)cc1 | inconclusive: 63.1 µM [inhibitor, partial curve, poor fit] |  |
| COc1ccccc1N1CCN(C(=O)CSc2nc3ncnc(N)c3[nH]2)CC1 |  | inactive: -40.1% [at 12.7 µM] |
| CCOC(=O)C1CCN(C(=O)c2ccc3nc(-c4ccc(OC)cc4)c(-c4ccc(OC)cc4)nc3c2)CC1 |  | inactive: 19.3% [at 102 µM] |
| CCC(=O)c1ccc(OCC(=O)OCC(=O)NCCCc2ccccc2)cc1 |  | inactive: -38.2% [at 102 µM] |
| CCOC(=O)c1ccccc1NC(=O)c1cc2sccc2n1C | inconclusive: 56.2 µM [inhibitor, partial curve, poor fit] |  |
| Cc1ccc2[nH]c(C(=O)N/N=C/c3ccc([N+](=O)[O-])cc3)c(C)c2c1 | inconclusive: 39.8 µM [inhibitor, single point] |  |
| COc1cc(C2C(C(=O)N3CCOCC3)=C(C)NC3=C2C(=O)CCC3)ccc1OC(C)=O (stereo not drawn) | active: 1.58 µM |  |
| COC(=O)c1[nH]c2cc(OC)ccc2c1NC(=O)c1nonc1C | inconclusive: 89.1 µM [inhibitor, single point] |  |
| CCc1cccc2c(C(=O)CN3C(=O)NC4(CCCCCC4)C3=O)c[nH]c12 | inconclusive: 39.8 µM [inhibitor, single point] |  |
| COc1ccc(Br)cc1CNC(=O)CN1CCSc2ccccc21 |  | inactive: -42.2% |
| Cc1cccc(NC(=S)NC(=O)/C=C/c2ccco2)c1 | active: 25.1 µM |  |
| COc1cccc(OCCNC(=O)c2cccc(OC)c2)c1 |  | inactive: 36.1% |
| O=C(Nc1ccc([N+](=O)[O-])cn1)c1cc(-c2cccc(Cl)c2)nc2ccccc12 | inconclusive: 39.8 µM [inhibitor, single point] |  |
| Cc1ccc(S(=O)(=O)c2c(N)n(/N=C/c3ccco3)c3nc4ccccc4nc23)cc1C |  | inactive: -6.68% [at 102 µM] |

| SMILES | Potency | activity, negative = inhibition |
| --- | --- | --- |
| CCOCCCn1c(C)nc2c[n+](CC(=O)c3ccc4ccccc4c3)cc(Br)c21 | inconclusive: 89.1 µM [inhibitor, single point] |  |
| O=C(Nc1ccccc1Cc1ccccc1)C1CC(=O)N(c2ccc3c(c2)OCCO3)C1 (stereo not drawn) | active: 3.55 µM |  |
| COc1ccc(OC)c2c(C)cc(C)nc12 | inconclusive: 89.1 µM [inhibitor, single point] |  |
| Cc1ccc2oc(-c3ccc(Cl)c(NC(=O)c4ccc(-c5ccccc5[N+](=O)[O-])o4)c3)nc2c1 |  | inactive: -4.36% |
| O=C(Nc1ccc(N2CCOCC2)cc1)c1cc2c(s1)CCCC2 | active: 39.8 µM |  |
| COc1cccc(NC(=O)CN(C)C(=O)CSC(=S)N2CCCC2)c1 | active: 14.1 µM |  |
| CCn1ccnc1CN1CCc2c([nH]c3ccccc23)C1C(C)(C)C (stereo not drawn) | inconclusive: 35.5 µM [inhibitor, partial curve] |  |
| CCCCC1=CC2=CC(=O)C(C)(OC(=O)CCc3ccccc3)C(=O)C2=CO1 (stereo not drawn) | inconclusive: 8.91 µM [inhibitor, single point] |  |
| CCOc1ccccc1NC(=O)COc1coc(CN2CCc3ccccc32)cc1=O | inconclusive: 44.7 µM [inhibitor, partial curve, poor fit] |  |
| CCOC(=O)NC(=O)CSc1nc(-c2ccc(C)c(C)c2)cn1-c1ccccc1 | active: 7.94 µM |  |
| CCN1CCN(S(=O)(=O)c2ccc(Cl)c(C(=O)NC(C)(C)C)c2)CC1 |  | inactive: -34% [at 102 µM] |
| CCOC(=O)C1=C(C)NC(SCC(=O)Nc2nc(C)cs2)=C(C#N)C1c1cccs1 (stereo not drawn) | inconclusive: 39.8 µM [inhibitor, single point] |  |
| Cc1ccc(N(CC(=O)N/N=C/c2ccco2)S(=O)(=O)c2ccccc2)cc1 | inconclusive: 79.4 µM [inhibitor, partial curve, poor fit] |  |
| Oc1ccccc1/C=N/n1c(COc2ccccc2)n[nH]c1=S | active: 2.51 µM |  |
| Cc1ccc(CNC(=O)C(NS(=O)(=O)c2cccc3nsnc23)C(C)C)cc1 (stereo not drawn) | inconclusive: 89.1 µM [inhibitor, single point] |  |
| COC(=O)N1CCC2(CCN(Cc3ccccc3)CC2)CC1 |  | inactive: -4.65% [at 12.7 µM] |
| Cc1ccc(S(=O)(=O)NC(=O)c2cc(C)n(CC(c3ccccc3)N(C)C)c2C)cc1 (stereo not drawn) | inconclusive: 28.2 µM [inhibitor, partial curve] |  |
| Cc1cnc(C(=O)Nc2ccc(C)c(S(=O)(=O)N3CCCCCC3)c2)cn1 | inconclusive: 89.1 µM [inhibitor, single point] |  |
| CCCCc1nnc(NC(=O)Cc2ccc(S(=O)(=O)N3CCOCC3)s2)s1 | inconclusive: 2 µM [inhibitor, partial curve, poor fit] |  |
| CCc1nnc(NS(=O)(=O)c2ccc(NS(=O)(=O)c3ccccc3)cc2)s1 |  | inactive: 2.62% [at 12.7 µM] |
| CC(Oc1ccc(Br)cc1)C(=O)NC1CCN(Cc2ccccc2)CC1 (stereo not drawn) | inconclusive: 50.1 µM [inhibitor, partial curve, poor fit] |  |
